The campaign covered roughly 340,000 compounds. About 530 (0.16%) were called active. This list was built around the results that the source calls inconclusive (neither active nor inactive); the mix of calls is not that of the screen. Rule as the data show it: active = activity change below about -80%; inconclusive = between about -30% and that limit; inactive = weaker than that.
Test: Small Molecules that selectively kill Giardia lamblia: qHTS;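 also: parasites exposed to compound for two days anaerobically before the ATP read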
Details: Giardia lamblia trophozoite viability; at 7.66 µM; active compounds read low
Procedure, shortened: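 Each well holds 100 Giardia trophozoites and compound. After two days (48 hrs) at 37 deg C in anaerobic conditions, ATP is quantified by luminescence.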
% is scaled to controls: 0 for no effect and ±100 for the full control effect.

Row | SMILES | activity change
1 | CC(=O)/C(N=Nc1ccc2c(c1)OCCO2)=C(\C)O | inconclusive: -35.6% [inhibitor]
2 | CC1CCCN(S(=O)(=O)c2ccc(C(=O)Nc3nnc(-c4ccccn4)o3)cc2)C1 (configuration not stated) | inactive: 1.67%
3 | Cc1ccc(-c2nc(-c3ccccn3)no2)cc1[N+](=O)[O-] | inconclusive: -34.8% [inhibitor]
4 | COc1ccc(C(CNc2ccc(S(=O)(=O)N3CCN(C)CC3)cc2[N+](=O)[O-])N(C)C)cc1 (configuration not stated) | inconclusive: -30.1% [inhibitor]
5 | O=C(NCCN1CCN(c2ccccc2)CC1)C1(S(=O)(=O)c2ccc(Cl)cc2)CC1 | inactive: -11.6%
6 | CCOC(=O)N1CCc2c(sc(NC(=O)CCS(=O)(=O)c3ccccc3)c2C(N)=O)C1 | inconclusive: -30.6% [inhibitor]
7 | CCOc1ccc2nc(SCc3ccc(OC)cc3)sc2c1 | inactive: 1.54%
8 | CN(C(=O)Cn1cnc2sccc2c1=O)C1CCCCC1 | inconclusive: -32.4% [inhibitor]
9 | CCN(CC)C(=O)[C@H]1C[C@H](CC(=O)NCc2ccc(OC)c(OC)c2)C(=O)N2CCc3c([nH]c4cc(CCC(=O)N(C)C)ccc34)[C@]12C | inactive: -9.37%
10 | O=C(N/N=C/c1ccccc1[N+](=O)[O-])c1ccc2c(c1)OCCO2 | inconclusive: -58.4% [inhibitor]
11 | COc1ccc(NC(=O)N2CCCC(C(=O)NCc3ccccc3F)C2)cc1 (configuration not stated) | inactive: -3.33%
12 | Cc1ccnc(NC(=O)c2ccc([N+](=O)[O-])s2)c1 | inconclusive: -74.1% [inhibitor]
13 | O=C(NC1CCCCCC1)c1cccc(COCC(F)(F)F)c1 | inactive: -3.17%
14 | CCCCCC/C(C)=C1/SC(=S)NC1=O | inconclusive: -31.6% [inhibitor]
15 | NC(=NCc1ccc2c(c1)OCO2)NC(=O)c1ccccc1 | inconclusive: -31.1% [inhibitor]
16 | NNC(=O)C(=O)NCCCN1CCOCC1 | inconclusive: -33.4% [inhibitor]
17 | N#Cc1cnn(-c2nc(SCc3ccccc3)nc3sc4c(c23)CCCC4)c1N | inactive: -6.07%
18 | Cc1cnc(N=Nc2ccccc2)[nH]1 | inconclusive: -52.3% [inhibitor]
19 | COc1ccccc1C(=O)NCC1(c2ccccc2)CCCC1 | inactive: -13.6%
20 | COc1ccc(NC(=O)CSc2ccc3c(c2)OCCO3)cc1OC | inconclusive: -30.8% [inhibitor]
21 | CN(C(=O)c1cccc(NC(=O)Cc2ccc(NC(=O)C3CCN(C(=O)C4CC4)CC3)cc2)c1)C1CCCCC1 | inconclusive: -31.6% [inhibitor]
22 | CCOc1ccc(N(CC(=O)N2CCN(c3ccccc3)CC2)S(=O)(=O)c2c(C)noc2C)cc1 | inconclusive: -35.4% [inhibitor]
23 | Cc1ccc(C2CC(c3cccs3)=NN2C(=O)CSC2=NCCS2)cc1 (configuration not stated) | inconclusive: -31.4% [inhibitor]
24 | COc1ccc(/C=N/NC(=O)c2[nH]c(C)c(C(=O)N/N=C/c3ccc(OC)cc3)c2C)cc1 | inactive: -11.7%
25 | Cc1ccc2nc(NC(=S)NC(=O)c3cccs3)sc2c1 | inconclusive: -58.7% [inhibitor]
26 | O=C(OCn1ncc(Cl)c(Cl)c1=O)c1ccc(C(F)(F)F)cc1 | inactive: 1.81%

Row | SMILES | activity change
27 | Cc1cc(N2CCN(C)CC2)nc2ccc(NC(=S)N3CCN(c4ccccn4)CC3)cc12 | inactive: -4.79%
28 | CC(C)c1nc2oc3c(NCC4CCCO4)ncnc3c2c2c1CCC2 (configuration not stated) | inactive: 3.01%
29 | COc1ccc(NC(=O)CSCc2ccc(C#N)cc2)c(OC)c1 | inconclusive: -33.2% [inhibitor]
30 | Cc1cc(C(=O)COC(=O)c2ccccc2O)c(C)n1Cc1cccs1 | inconclusive: -38.3% [inhibitor]
31 | CC(NC(=O)Cn1cc(Br)c([N+](=O)[O-])n1)c1ccccc1 (configuration not stated) | inconclusive: -51.5% [inhibitor]
32 | O=C1C=CC(=O)N1Cc1cccnc1 | inactive: 11.1%
33 | COc1ccccc1C1=NC(c2ccc(F)cc2)N=C1C (configuration not stated) | inconclusive: -39.2% [inhibitor]
34 | Cc1cccc(-n2ncc3c(N4CCCC4)ncnc32)c1 | inconclusive: -45.6% [inhibitor]
35 | CC1CCCN(C(=O)c2cccc(S(=O)(=O)N3CCCc4ccccc43)c2)C1 (configuration not stated) | inactive: 13.2%
36 | CC(C)(C)n1nc2c(c1NC(=O)c1ccccc1F)CS(=O)C2 (configuration not stated) | inconclusive: -31.8% [inhibitor]
37 | Cc1ccc(C(C)C)c(OCC(=O)NN=C2CCCCCCC2)c1 | inconclusive: -33.9% [inhibitor]
38 | O=C(OCc1nnc(-c2ccccc2)o1)c1ccc([N+](=O)[O-])o1 | inactive: -6.02%
39 | CC(=O)N1CCN(c2ccc(S(=O)(=O)N3CCCCC3)cc2[N+](=O)[O-])CC1 | inconclusive: -31.5% [inhibitor]
40 | Cc1ccc([N+](=O)[O-])cc1NC(=O)CSc1n[nH]c(-c2cccnc2)n1 | inconclusive: -34.8% [inhibitor]
41 | N#Cc1nc(COc2ccc(F)cc2)oc1N1CCN(Cc2ccccc2)CC1 | inconclusive: -30.9% [inhibitor]
42 | COc1ccc(C(=O)Nc2cc(C(=O)O)cc(C(=O)O)c2)cc1Cl | inconclusive: -34.2% [inhibitor]
43 | Cc1ccc(/C=N/Nc2nnc(Cl)c3ccccc23)cc1 | inconclusive: -57.5% [inhibitor]
44 | O=C1c2ccccc2-c2cccc(NS(=O)(=O)c3ccc(C(F)(F)F)cc3)c21 | inactive: -2.52%
45 | O=C1N/C(=N\N=C\c2cccs2)SC1Cc1cccc(Cl)c1 (configuration not stated) | inactive: -22%
46 | CCCCC1=CC2=CC(=O)C(C)(OC(=O)CC)C(=O)C2=CN1c1cccc(C#N)c1 (configuration not stated) | inconclusive: -30.7% [inhibitor]
47 | Cn1cc(S(=O)(=O)N2CCCC2)cc1C(=O)NCc1ccccc1Cl | inactive: 5.87%
48 | Cc1ccc(S(=O)(=O)N2[C@@H](c3ccccc3F)C(C(=O)O)=CC[C@H]2c2ccc3c(c2)OCO3)cc1 | inconclusive: -39.1% [inhibitor]
49 | CC1=C(C(=O)N2CCCC(C(=O)c3cccc4ccccc34)C2)OCCO1 (configuration not stated) | inactive: 1.62%
50 | COc1cc([C@@H]2CC=C(C(=O)O)[C@H](c3ccc(C)cc3)N2S(=O)(=O)c2ccc(C)cc2)cc(OC)c1OC | inconclusive: -40.7% [inhibitor]
51 | CC[C@H](C)[C@@H](NC(=O)O[C@@H]1C(=O)c2cc(OC)ccc2O[C@H]1c1ccc(OC)c(Br)c1)C(=O)OC | inactive: 5.23%
52 | O=C(Nc1ccccn1)c1ccc([N+](=O)[O-])o1 | active: -92.6%

Row | SMILES | activity change
53 | COc1ccc(-c2cc(C(=O)Nc3cccc(O)c3)no2)cc1 | inconclusive: -43.1% [inhibitor]
54 | CCCCC(=O)Nc1cc([N+](=O)[O-])ccc1F | inconclusive: -31.5% [inhibitor]
55 | CC(=O)c1ccccc1OC(=O)COc1ccc(Cl)cc1C | inconclusive: -31.7% [inhibitor]
56 | Cc1ccc(S(=O)(=O)CC(=O)Nc2ccc(F)c(F)c2F)cc1 | inconclusive: -48.2% [inhibitor]
57 | COc1ccc(Cl)cc1NC(=O)CN(C)C(=O)CCCNC(=O)c1ccc(Cl)cc1 | inconclusive: -34% [inhibitor]
58 | Brc1ccccc1C1=Nn2c(nnc2-c2ccco2)SC1 | inconclusive: -33.7% [inhibitor]
59 | CCCC(=O)C1=C(O)C(C(=O)OC)C(C)(C)CC1=NCCc1ccccc1 (configuration not stated) | inconclusive: -32.7% [inhibitor]
60 | O=C(Nc1ccc(N2CCOCC2)cc1)c1ccc([N+](=O)[O-])o1 | active: -84.9%
61 | COc1cccc(-c2nc(-c3ccccn3)no2)c1 | inconclusive: -56% [inhibitor]
62 | COc1ccc(-c2nsc3c(N4CCCCC4C)ncnc23)cc1 (configuration not stated) | inconclusive: -49.1% [inhibitor]
63 | O=C(COC(=O)c1ccc2ccccc2c1O)NCC(F)(F)F | inconclusive: -32.8% [inhibitor]
64 | O=C(c1ccc(CSc2nc3ccncc3[nH]2)cc1)N1CCCCCC1 | inconclusive: -79.1% [inhibitor]
65 | COc1ccc(-c2cn3cc(C)ccc3n2)cc1F | inconclusive: -38.1% [inhibitor]
66 | Nc1ccc(C(=O)OCC(=O)N2c3ccccc3Sc3ccccc32)cc1[N+](=O)[O-] | inactive: -15.2%
67 | Cc1ccc(NC(=O)C[n+]2cc(-c3ccc(C)cc3)n3c2CCC3)cc1 | inconclusive: -30.3% [inhibitor]
68 | Cn1nc(C(F)(F)F)c(C#N)c1N1CCN(c2ccc(F)cc2)CC1 | inactive: -3.23%
69 | O=C(O)c1ccccc1NC(=O)c1cc2ccccc2oc1=O | inconclusive: -35.3% [inhibitor]
70 | CCCN1C(=O)c2ccccc2NC1c1ccc(OC)c(COc2cccc(OC)c2)c1 (configuration not stated) | inconclusive: -34.7% [inhibitor]
71 | Cn1nccc1C(=O)Nc1ccc(S(=O)(=O)N2CCCC2)cc1 | inactive: 13.8%
72 | Cn1nnc(NC(=S)NC(=O)c2cccc3ccccc23)n1 | inconclusive: -31.5% [inhibitor]
73 | Cn1c(Cc2c[nH]c3ccccc23)n[nH]c1=S | inactive: 3.41%
74 | O=C(NC(=S)Nc1ccc(S(=O)(=O)Nc2nccs2)cc1)c1ccc(F)cc1 | inconclusive: -41% [inhibitor]
75 | C[C@H](O)C(=O)C1=Nc2c(nc(N)[nH]c2=O)NC1 | inconclusive: -33% [inhibitor]
76 | CCOC(=O)N1CCC(NC(=O)c2cc3c(-c4ccccc4F)nn(C)c3s2)CC1 | inactive: -9.37%
77 | CCOC(=O)N1CCN(C(=O)c2ccc3c(SCC(=O)O)c4c(nc3c2)CCCC4)CC1 | inconclusive: -34% [inhibitor]

Source: PubChem BioAssay AID540267 (National Center for Advancing Translational Sciences (NCATS), 2011)
